{
  "source": "ChEMBL document CHEMBL4888484",
  "about": "“Replenishing the malaria drug discovery pipeline: Screening and hit evaluation of the MMV Hit Generation Library 1 (HGL1) against asexual blood stage Plasmodium falciparum ,using a nano luciferase reporter read-out” (2022)",
  "note": "The campaign covered roughly 4,800 compounds. About 420 (8.8%) showed an effect of 50% or more. Some of the results follow.",
  "data": [
    {"test_system": "Plasmodium falciparum", "assay": "Confirmatory screen in NF54 nanoGlo assay, in single point, at 2uM, 72h", "assay_type": "functional, Erythrocyte", "settings": "timepoint 72 hour", "units": {"% Inhibition": "%"}, "values": [
      {"smiles": "COc1cccc(Cn2nc3ccc(S(=O)(=O)N4CCCC4)cn3c2=O)c1", "% Inhibition": 2},
      {"smiles": "O=C1c2ccccc2[C@H]2N1CCN2c1ccccc1", "% Inhibition": 5},
      {"smiles": "O=C(NCC1(Cc2ccccc2)CCC1)N(CCO)C1CC1", "% Inhibition": -7},
      {"smiles": "O=S(=O)(Nc1cccc2cccnc12)c1cccs1", "% Inhibition": 60},
      {"smiles": "COc1ccc([C@@H]2NC(=O)c3cc(C(C)C)sc3N2)cc1COc1ccc(F)cc1F", "% Inhibition": 4},
      {"smiles": "Cc1cccc(C(=O)N2CCc3[nH]nc(C(=O)N[C@H]4CCCc5ccccc54)c3C2)c1", "% Inhibition": -8},
      {"smiles": "CC(C)c1ocnc1C(=O)N[C@](C)(C#N)CCc1ccccc1", "% Inhibition": 8},
      {"smiles": "COc1ccc(NC(=O)Cn2cnc3nc(N(C)Cc4ccccc4)sc3c2=O)cc1Cl", "% Inhibition": -8},
      {"smiles": "Cc1ccc(CN(CCN2CCCC2)Cc2ccc(C)o2)o1", "% Inhibition": 3},
      {"smiles": "O=S(=O)(c1c(Cl)cccc1Cl)N1CCC[C@@H]1CN1CCCC1", "% Inhibition": -1},
      {"smiles": "COc1ccc(CCNCC(=O)Nc2c3c(nc4ccccc24)N(C)CC3)cc1OC", "% Inhibition": 3},
      {"smiles": "CCc1cccc(NC(=O)N2CCC3(CC2)C(=O)N(CC(=O)Nc2ccc(F)cc2)CN3c2ccccc2)c1", "% Inhibition": 43},
      {"smiles": "CCn1nc(CNC[C@H](C)O)c(-c2ccccc2)n1", "% Inhibition": -11},
      {"smiles": "CC1CCCCC1OCCN1CCCC(C2(C)NC(=O)NC2=O)C1", "note": "(stereo not drawn)", "% Inhibition": -1},
      {"smiles": "O=C(NS(=O)(=O)c1ccc2c(c1)OCCCO2)c1cc2c(s1)CCC2", "% Inhibition": 4},
      {"smiles": "CC1CC(C(=O)Nc2[nH]c(=O)ncc2F)CC(C)(C)C1", "note": "(stereo not drawn)", "% Inhibition": 92},
      {"smiles": "CCOc1ccccc1C(=O)Nc1c(-n2cnnc2)nn(C)c1C", "% Inhibition": 2},
      {"smiles": "Cc1nccn1-c1cc(CNC(=O)[C@H]2CCCN(S(=O)(=O)c3cccs3)C2)ccn1", "% Inhibition": 2},
      {"smiles": "COCCc1nc(C2(Nc3ccc(Cl)cc3)CCC2)no1", "% Inhibition": 3},
      {"smiles": "CC1CCC(NC(=O)[C@H]2CCS(=O)(=O)C2)CC1", "note": "(stereo partly drawn)", "% Inhibition": -13},
      {"smiles": "Cc1ncc(CN(CCN(C)C)CC2CCCCC2)s1", "% Inhibition": -8},
      {"smiles": "O=C(NCc1noc(Cc2ccccc2)n1)c1ccno1", "% Inhibition": 2},
      {"smiles": "OC(CNC1CCCNc2ccccc21)c1ccc(Cl)s1", "note": "(stereo not drawn)", "% Inhibition": 58},
      {"smiles": "Cc1cc(C(=O)NCc2nc3ccccc3s2)c(C)o1", "% Inhibition": -1},
      {"smiles": "Cn1c(=O)c2nc(N3CCOCC3)[nH]c2n(-c2ccccc2)c1=O", "% Inhibition": 1},
      {"smiles": "CCCNC(=O)c1c(NC(=O)c2ccc3c(c2)c(C)c(C)n3Cc2ccccc2)cnn1C", "% Inhibition": -12},
      {"smiles": "COc1cc(=O)c(C(=O)N2CCCCCC2)nn1-c1ccc(F)c(F)c1", "% Inhibition": 3},
      {"smiles": "Cc1noc(C)c1CN1C[C@@H]2Oc3cc(F)ccc3C(=O)N(C)[C@@H]2C1", "% Inhibition": 92},
      {"smiles": "C[C@H](C(=O)NCC1CCN(Cc2ccccc2F)CC1)C1CCOCC1", "% Inhibition": -6},
      {"smiles": "Cc1cc(-c2cncc(CN3CCCCC3)c2)ccc1F", "% Inhibition": 7},
      {"smiles": "O=C(NC1CCCC1)c1cc2ccccc2[nH]1", "% Inhibition": -7},
      {"smiles": "CN(c1nc2c(cnn2C)c(=O)[nH]1)C1CCCC1c1ccc(C(F)(F)F)cc1", "note": "(stereo not drawn)", "% Inhibition": 6},
      {"smiles": "Cc1cccc(C(=O)Nc2c(C#N)c(-c3ccccc3)c(-c3ccccc3)n2Cc2ccccc2)c1", "% Inhibition": 3},
      {"smiles": "C[C@@H](CN)N(C)c1ccnc2cc(Br)cnc12", "% Inhibition": 98},
      {"smiles": "Cc1nc2cc(F)ccc2cc1C(=O)N1CCN(S(=O)(=O)c2ccc(Br)cc2)CC1", "% Inhibition": 0},
      {"smiles": "CCCN1CCN(CCCNC(=O)c2ccc(Cl)c(-n3c(C)nc4cccnc43)c2)CC1", "% Inhibition": 0},
      {"smiles": "COc1cccc(NC(=O)Nc2ccc3c(c2)NC(=O)C(C)(C)O3)c1", "% Inhibition": -1},
      {"smiles": "O=C(CCc1ccc2cc[nH]c2c1)NCc1cccc(Cl)c1", "% Inhibition": 0},
      {"smiles": "O=C(Cc1ccc(Cl)cc1Cl)N1CCc2[nH]nc(C(=O)N3CCN(c4ccccc4)CC3)c2C1", "% Inhibition": -1},
      {"smiles": "N[C@@H](CO)c1cccc(Br)c1", "% Inhibition": 7},
      {"smiles": "Cc1ccc(-c2nn[nH]n2)cc1-n1cccn1", "% Inhibition": -2},
      {"smiles": "Cn1cc(-c2cc(-c3cnn(C)c3)n(S(=O)(=O)c3ccc(Cl)cc3)n2)cn1", "% Inhibition": -20},
      {"smiles": "O=C(c1cc(-c2ccncc2)on1)N1CCOC2(CCCCCC2)C1", "% Inhibition": -6},
      {"smiles": "CCCc1nnc(NC(=O)C(=O)OCC)s1", "% Inhibition": -6},
      {"smiles": "COC(=O)c1cc(Cl)cc(NC(=O)CC2CCNCC2)c1", "% Inhibition": -6},
      {"smiles": "FC(F)(F)c1ccc(-c2nc(Cn3ccnn3)co2)cc1", "% Inhibition": 0},
      {"smiles": "Cc1cc(N2CCN(c3ccccn3)CC2)n2cc(-c3ccccc3)nc2n1", "% Inhibition": 7},
      {"smiles": "CC(C)(c1ccc(F)cc1)C1(NC(=O)CCc2nccs2)CC1", "% Inhibition": -9},
      {"smiles": "COc1cccc(-n2c(C)cc(C(=O)N3CCNC(=O)CC3)c2C)c1", "% Inhibition": -6},
      {"smiles": "C1CCC(Nc2nc3nonc3nc2N2CCCCC2)CC1", "% Inhibition": 1},
      {"smiles": "CC(Oc1ccccc1)C(=O)N1CCNC(=O)C1c1ccc(Br)cc1", "note": "(stereo not drawn)", "% Inhibition": -2},
      {"smiles": "CC1CCCC(C)C12NC(=O)N(CN1CCN(CCOc3ccccc3Cl)CC1)C2=O", "note": "(stereo not drawn)", "% Inhibition": 1},
      {"smiles": "CCOC(=O)[C@@H](OC(=O)Nc1cccc(C(F)(F)F)c1)C(F)(F)F", "% Inhibition": 1},
      {"smiles": "O=C1[C@@H]2C[C@@H](CN2C(=O)c2cncnc2)Oc2ccccc2N1Cc1cccnc1", "% Inhibition": 4},
      {"smiles": "Brc1cc(Br)c2nc(-c3ccc(C4CCCCC4)cc3)ccc2c1", "% Inhibition": 3},
      {"smiles": "O=C(NCCc1cccs1)c1nn[nH]c1Nc1ccccc1F", "% Inhibition": 0},
      {"smiles": "Cc1nn(C[C@H](C)/C(N)=N/O)cc1Cl", "% Inhibition": 3},
      {"smiles": "Cn1ncc(Cl)c1C(=O)N(C1CCCCC1)C1CCCCC1", "% Inhibition": 1},
      {"smiles": "O[C@@]1(CN2CCC(COc3ccc4c(c3)CCC4)CC2)CCCNC1", "% Inhibition": 52},
      {"smiles": "Clc1cc(CNCCc2ccccc2)ccc1OCc1ccccc1", "% Inhibition": -6},
      {"smiles": "CCOC(=O)Nc1nc(C)c(-c2nc3ccccc3c(=O)n2-c2ccc(OC)cc2)s1", "% Inhibition": -4},
      {"smiles": "O=C(CCc1ccccc1)Nc1ccc(-n2nn[nH]c2=O)cc1", "% Inhibition": -5},
      {"smiles": "CN(Cc1cnn(-c2ccccc2)n1)c1ncnc2[nH]ncc12", "% Inhibition": 3},
      {"smiles": "CCCCC(C)C(=O)N1CCC2CN(C(=O)C(F)(F)F)CC2C1", "note": "(stereo not drawn)", "% Inhibition": 3},
      {"smiles": "c1ccc(-c2nccc(-c3ccc(-n4cncn4)cc3)n2)nc1", "% Inhibition": 16},
      {"smiles": "Cc1nn(-c2nc3ccccc3[nH]2)c(O)c1Cc1ccccc1", "% Inhibition": 2},
      {"smiles": "c1cc(Cn2cnc3c2CCCC3)cs1", "% Inhibition": -15},
      {"smiles": "COc1ccc2ncc(=O)n(CCOc3ccccc3)c2c1", "% Inhibition": 4}
    ]}
  ]
}
